# In the supplement of paper PMC8047034:
# Counter-ions that a name gives are not always drawn. The list shows a part of the results. Single values are uncertain, as repeats are few or missing.
# Key:
# OVCAR4 = experiment: log2 surviving fraction (library drug vs vehicle, or drug + carboplatin vs carboplatin alone; relative to plate median); ovarian cancer lines: OVCAR4 is platinum-sensitive and Ov4Carbo platinum-resistant; higher = more cell survival; conditions: library drug concentration 10 µM, 7 days
# Ov4Carbo = experiment: as above; conditions: library drug concentration 10 µM, 7 days
Structure (SMILES),log2 surviving fraction (OVCAR4; carboplatin co-treatment 0 µM),log2 surviving fraction (OVCAR4; carboplatin co-treatment 5 µM),log2 surviving fraction (Ov4Carbo; carboplatin co-treatment 0 µM),log2 surviving fraction (Ov4Carbo; carboplatin co-treatment 5 µM)
CN(C)[C@@H]1C(O)=C(C(N)=O)C(=O)[C@@]2(O)C(O)=C3C(=O)c4c(O)cccc4[C@@](C)(O)[C@H]3[C@H](O)[C@@H]12 [Oxytetracycline (Terramycin)],1.03,0.641,-0.0462,0.00112
CC[C@H]1CN2CCc3cc(OC)c(OC)cc3[C@@H]2C[C@@H]1C[C@H]1NCCc2cc(OC)c(OC)cc21 [Emetine],-8.7,-7.92,-8.47,-7.16
CC1(C)S[C@@H]2[C@H](NC(=O)Cc3ccccc3)C(=O)N2[C@H]1C(=O)O [Benzylpenicillin sodium],0.107,0.265,0.0147,1.12
CC(C)[C@H](N)C(=O)OCC(CO)OCn1cnc2c(=O)nc(N)[nH]c21 (some centres undefined) [valganciclovir hydrochloride],-0.135,-0.282,0.179,0.752
CN1[C@@H]2CC[C@H]1C[C@@H](OC(=O)[C@H](CO)c1ccccc1)C2 [Hyoscyamine (Daturine)],0.328,1.25,0.171,0.748
CN1CCCC(n2nc(Cc3ccc(Cl)cc3)c3ccccc3c2=O)CC1 (centres undefined) [Azelastine hydrochloride (Astelin)],-1.13,-0.925,-1.89,-1.75
C[C@H](CCC(=O)O)[C@H]1CC[C@H]2[C@@H]3[C@@H](O)C[C@@H]4C[C@H](O)CC[C@]4(C)[C@H]3CC[C@]12C [Ursodiol (Actigal Urso)],0.81,0.673,-0.00732,0.00409
Cc1nnc(C(C)C)n1C1C[C@H]2CC[C@@H](C1)N2CC[C@H](NC(=O)C1CCC(F)(F)CC1)c1ccccc1 (stereo in doubt) [Maraviroc],0.377,1.73,0.638,1.64
CC#CCn1c(N2CCC[C@@H](N)C2)nc2c1c(=O)n(Cc1nc(C)c3ccccc3n1)c(=O)n2C [Linagliptin (BI-1356)],-0.0946,-1.04,-1.21,-1.05
N=C(N)NS(=O)(=O)c1ccc(N)cc1 [Sulfaguanidine],-0.422,0.344,-0.367,-0.118
OC(CCN1CCCC1)(c1ccccc1)C1CCCCC1 (centres undefined) [Procyclidine HCl],-1.08,-0.803,-1.92,-0.857
O=C(O)c1cn(C2CC2)c2cc(N3CCNCC3)c(F)cc2c1=O [Ciprofloxacin (Cipro)],0.137,-0.257,-0.175,0.0352
Cc1ccc(C(=O)c2ccc(CC(=O)O)n2C)cc1 [Tolmetin Sodium],1.43,1.14,0.453,0.752
O=P(O)(O)C(O)(Cc1cccnc1)P(=O)(O)O [Risedronate sodium],-3.99,1.43,1.24,0.592
"CCC(=O)O[C@]1(C(=O)SCF)[C@H](C)C[C@H]2[C@@H]3C[C@H](F)C4=CC(=O)C=C[C@]4(C)[C@@]3(F)[C@@H](O)C[C@@]21C [Fluticasone propionate (Flonase, Veramyst)]",0.0463,0.663,0.604,-9.51
Nc1ccc(S(N)(=O)=O)cc1 [Sulfanilamide],0.114,0.531,1.28,0.674
O=C(O)Cc1ccccc1Nc1c(Cl)cccc1Cl [Diclofenac Potassium],1.05,0.502,1.15,0.331
Nc1ccn([C@@H]2O[C@H](CO)[C@@H](O)[C@H]2O)c(=O)n1 [Cytidine],0.818,-0.0982,-0.209,0.608
CN1c2ccccc2C(NCCCCCCC(=O)O)c2ccc(Cl)cc2S1(=O)=O (centres undefined) [Tianeptine sodium],1.66,1.19,1.78,0.39
Nc1cc(C(Cl)=C(Cl)Cl)c(S(N)(=O)=O)cc1S(N)(=O)=O [Clorsulon],-0.0971,0.113,0.00579,0.583
COc1cc(C(=O)NS(=O)(=O)c2ccccc2C)ccc1Cc1cn(C)c2ccc(NC(=O)OC3CCCC3)cc12 [Zafirlukast (Accolate)],0.875,0.506,0.224,0.338
C=C1/C(=C\C=C2/CCC[C@]3(C)[C@@H]([C@H](C)/C=C/[C@H](C)C(C)C)CC[C@@H]23)C[C@@H](O)C[C@@H]1O [Doxercalciferol (Hectorol)],-5.24,-0.338,-1.55,-0.941
CN1[C@@H]2CC(O)C[C@H]1[C@@H]1O[C@@H]12 (some centres undefined) [Scopine],0.466,-0.139,0.325,-0.226
O=C(O[C@H]1CN2CCC1CC2)N1CCc2ccccc2[C@@H]1c1ccccc1 [Solifenacin succinate],-0.0369,-0.0568,0.373,-0.526
O=C1OC(CN2CCOCC2)CN1/N=C/c1ccc([N+](=O)[O-])o1 (centres undefined) [Furaltadone HCl],-1,-0.441,-0.583,-1.42
O=c1[nH]c(=O)n([C@H]2C[C@H](O)[C@@H](CO)O2)cc1F [Floxuridine],-2.32,-3.59,-2.95,-2.51

Structure (SMILES),log2 surviving fraction (OVCAR4; carboplatin co-treatment 0 µM),log2 surviving fraction (OVCAR4; carboplatin co-treatment 5 µM),log2 surviving fraction (Ov4Carbo; carboplatin co-treatment 0 µM),log2 surviving fraction (Ov4Carbo; carboplatin co-treatment 5 µM)
COc1cc(/C=C/C(=O)N2CCN(CC(=O)N3CCCC3)CC2)cc(OC)c1OC [Cinepazide maleate],0.566,-0.315,-0.178,0.254
NCC1(CC(=O)O)CCCCC1 [Gabapentin (Neurontin)],0.437,0.134,0.172,0.337
CCN(CC)CCOC(=O)C1(C2CCCCC2)CCCCC1 [Dicyclomine HCl],0.389,-0.039,0.148,0.746
C=C1/C(=C\C=C2/CCC[C@]3(C)[C@@H]([C@H](C)CCCC(C)C)CC[C@@H]23)C[C@@H](O)C[C@@H]1O [Alfacalcidol],-0.152,-0.27,-1.32,-0.571
O=C(N[C@H](CO)[C@H](O)c1ccc([N+](=O)[O-])cc1)C(Cl)Cl [Chloramphenicol (Chloromycetin)],0.159,0.108,0.0208,0.097
O=C(O)Cc1ccccc1Nc1c(Cl)cccc1Cl [Diclofenac Diethylamine],0.377,0.241,0.274,0.76
CN1CC2c3ccccc3Oc3ccc(Cl)cc3C2C1 (centres undefined) [Asenapine],-0.0943,-2.41,-1.01,-0.541
COc1ccccc1OCC(O)CN1CCN(CC(=O)Nc2c(C)cccc2C)CC1 (centres undefined) [Ranolazine (Ranexa)],0.00813,0.811,0.955,0.502
N[C@@H](CSCCCO)C(=O)O [Fudosteine],-0.964,-0.213,-0.42,-0.853
O=c1[nH]c(=O)n(C2CCCO2)cc1F (centres undefined) [Ftorafur],0.771,-7.48,0.332,-0.115
COc1ccccc1N1CCN(CC(O)COc2cccc3ccccc23)CC1 (centres undefined) [Naftopidil (Flivas)],0.236,-0.699,-0.834,-1.54
Clc1ccc(COC(Cn2ccnc2)c2ccc(Cl)cc2Cl)cc1 (centres undefined) [Econazole nitrate (Spectazole)],-2.05,-1.79,-1.6,-1.3
Cc1ccnc2c1NC(=O)c1cccnc1N2C1CC1 [Nevirapine (Viramune)],0.0122,0.558,0.075,-0.626
NCCNCCNCCNCCN [Tetraethylenepentamine 5HCl],-2.54,-1.57,-2.03,-2
CC(=O)[C@H]1CC[C@H]2[C@@H]3C[C@H](C)C4=CC(=O)CC[C@]4(C)[C@H]3[C@@H](O)C[C@]12C [Medrysone],-0.215,0.0966,-0.267,-0.0542
COc1ccc(/C=C/C(=O)Nc2ccccc2C(=O)O)cc1OC,-0.258,-0.707,0.931,0.00794
O=S(=O)(F)Cc1ccccc1 [PMSF (Phenylmethylsulfonyl Fluoride)],0.613,0.355,-0.27,0.154
CC(C)NC[C@@H](O)COc1ccc(CC(N)=O)cc1 [(R)-(+)-Atenolol],0.279,0.715,-0.0391,0.284
COc1ccccc1OCC(O)COC(N)=O (centres undefined) [Methocarbamol (Robaxin)],0.849,0.345,0.347,0.313
CC(C)(O)c1ccccc1CC[C@@H](SCC1(CC(=O)O)CC1)c1cccc(/C=C/c2ccc3ccc(Cl)cc3n2)c1 [Montelukast Sodium],0.403,0.486,0.272,0.335
CCN(CC)CC#CCOC(=O)C(O)(c1ccccc1)C1CCCCC1 (centres undefined) [Oxybutynin chloride],-0.407,-1.03,-1.22,-0.767
O=C(O)/C=C/c1ccc(Cn2ccnc2)cc1 [Ozagrel],0.587,-0.0626,0.391,-0.183
C=C(NC(=O)C(=C)NC(=O)c1csc(C2=N[C@@H]3c4csc(n4)[C@H]4NC(=O)c5csc(n5)[C@H]([C@](C)(O)[C@@H](C)O)NC(=O)[C@H]5CSC(=N5)/C(=C/C)NC(=O)[C@H]([C@@H](C)O)NC(=O)c5csc(n5)[C@]3(CC2)NC(=O)[C@H](C)NC(=O)C(=C)NC(=O)[C@H](C)NC(=O)[C@H]([C@@H](C)CC)N[C@@H]2C=Cc3c([C@H](C)O)cc(nc3[C@H]2O)C(=O)O[C@@H]4C)n1)C(N)=O [Thiostrepton],-9.68,-8.02,-8.11,-7.33
"COc1ccc2c(c1)c(CC(=O)O)c(C)n2C(=O)c1ccc(Cl)cc1 [Indomethacin (Indocid, Indocin)]",0.329,0.571,1.37,1.22
CC1(C)[C@@H](O[C@H]2O[C@H](C(=O)O)[C@@H](O)[C@H](O)[C@H]2O[C@@H]2O[C@H](C(=O)O)[C@@H](O)[C@H](O)[C@H]2O)CC[C@]2(C)[C@H]3C(=O)C=C4[C@@H]5C[C@@](C)(C(=O)O)CC[C@]5(C)CC[C@@]4(C)[C@]3(C)CC[C@@H]12 [Ammonium Glycyrrhizinate (AMGZ)],-0.591,0.0643,-0.354,-0.63
